In all, about 310,000 compounds went through this assay and about 14,000 (4.5%) showed an effect of 50% or more. The effect is printed as a negative number. This is one part of the list.
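Note: peak tail current of the secondary pulse compared with the same well before compound.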

In the experiment the target is human ether-à-go-go-related gene (hERG) potassium channel (human, UniProt Q12809). Nature of the experiment: primary screen, population patch clamp on CHO cells stably expressing hERG.
Sequence of human ether-à-go-go-related gene (hERG) potassium channel (Q12809 whole entry, looked up): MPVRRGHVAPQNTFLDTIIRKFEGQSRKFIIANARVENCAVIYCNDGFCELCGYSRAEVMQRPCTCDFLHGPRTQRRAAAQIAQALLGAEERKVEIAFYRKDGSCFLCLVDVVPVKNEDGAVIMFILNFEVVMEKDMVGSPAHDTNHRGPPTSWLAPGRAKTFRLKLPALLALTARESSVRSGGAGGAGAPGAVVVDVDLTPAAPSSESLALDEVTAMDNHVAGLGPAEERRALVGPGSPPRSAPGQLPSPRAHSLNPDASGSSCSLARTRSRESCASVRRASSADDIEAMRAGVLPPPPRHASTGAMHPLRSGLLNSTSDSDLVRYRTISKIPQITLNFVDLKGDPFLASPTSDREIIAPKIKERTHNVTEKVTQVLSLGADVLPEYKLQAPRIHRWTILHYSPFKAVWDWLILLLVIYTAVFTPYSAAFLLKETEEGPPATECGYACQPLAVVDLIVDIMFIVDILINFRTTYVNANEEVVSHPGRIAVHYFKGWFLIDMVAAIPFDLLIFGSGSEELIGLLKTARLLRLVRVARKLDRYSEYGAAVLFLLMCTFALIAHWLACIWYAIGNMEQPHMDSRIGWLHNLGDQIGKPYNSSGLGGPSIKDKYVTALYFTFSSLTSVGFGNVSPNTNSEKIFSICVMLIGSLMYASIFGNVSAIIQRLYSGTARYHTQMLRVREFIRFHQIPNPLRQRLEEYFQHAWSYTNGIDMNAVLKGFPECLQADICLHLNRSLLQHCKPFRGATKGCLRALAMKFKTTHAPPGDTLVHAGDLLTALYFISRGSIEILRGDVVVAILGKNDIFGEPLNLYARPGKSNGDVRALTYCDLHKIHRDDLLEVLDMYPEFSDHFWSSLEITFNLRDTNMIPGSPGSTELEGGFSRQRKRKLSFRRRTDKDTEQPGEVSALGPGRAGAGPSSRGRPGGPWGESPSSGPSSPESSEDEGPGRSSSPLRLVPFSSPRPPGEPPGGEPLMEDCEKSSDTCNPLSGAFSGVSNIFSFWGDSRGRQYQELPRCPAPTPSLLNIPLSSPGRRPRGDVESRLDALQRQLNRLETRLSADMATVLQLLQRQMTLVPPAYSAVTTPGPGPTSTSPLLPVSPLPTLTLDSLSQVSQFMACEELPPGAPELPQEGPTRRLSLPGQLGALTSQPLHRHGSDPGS
Regarding `CC(C)CN(C(=O)c1cc2ccccc2o1)c1c(N)n(CC(C)C)c(=O)[nH]c1=O`, the “hERG current change (%, negative = inhibition) at 10uM” value came to 5.32%.
Next, `Cc1cc(=O)oc2c1c(C)nn2-c1cccc(Cl)c1`: -3.81%; `Cc1ccccc1C(=O)NC1CCN(CC(=O)NCc2ccccc2)CC1`: -29.8%.
For `O=C(Nc1ccccc1N1CCCCC1)c1ccc(-c2cccc(Cl)c2)o1` the value was 26.1%; for `NNC(=O)CCc1ccc(S(=O)(=O)N2CCOCC2)cc1`, 19.3%.
For `O=C(c1ccccc1)N1CCN(C(=O)c2cc3ccccc3oc2=O)CC1` the value was -5.6%.
On to `COCCCN1C(=O)N(c2ccc(F)cc2)C(=O)C1CC(=O)Nc1ccc(OC)cc1` (stereo not shown), for which the “hERG current change (%, negative = inhibition) at 10uM” value stood at 11.1%.
As to `O=C(Nc1ccc(NC(=O)c2ccccc2Br)cc1)c1ccccc1`, the “hERG current change (%, negative = inhibition) at 10uM” value is recorded as 10.3%.
Next, `O=C(O)CC/C(=N/NC(=O)CNC(=O)c1ccc2c(c1)OCCO2)c1ccccc1`: 27.7%; `COc1ccc(C(=O)N/N=C2\CCS(=O)(=O)c3ccc(F)cc32)cc1OC`: 9.07%; `O=C(Nc1ccc(N2CCOCC2)c(S(=O)(=O)Nc2ccc(Cl)cc2)c1)c1cnccn1`: -2.42%.
As for `Cc1ccnc(N2CCC(C(=O)NC3CCCCCC3)CC2)n1`, the “hERG current change (%, negative = inhibition) at 10uM” value is -9.64%.
For `CC1CNCCN1S(=O)(=O)c1cccc2cnccc12.Cl` (stereo not shown) the value was 0.35%; for `O=c1c2c(nc3cc(-c4ccc(F)cc4)[nH]n13)CCC2`, 4.81%.
For `COCCCNC(=O)c1ccccc1SC` the value was 11.9%; for `Cc1cccc(NC(=S)NCC(c2cccnc2)N2CCOCC2)c1C` (stereo not shown), 5.77%; for `O=C(COC(=O)c1cc([N+](=O)[O-])ccc1N1CCOCC1)Nc1c(Cl)cccc1Cl`, -5.53%.
Next, `CC(C)NC(=O)c1c(CSc2ccccc2)noc1C(=O)NCc1ccccc1`: -0.839%; `O=C(NNC(=S)NC(=O)c1cccs1)c1ccc(O)cc1`: 13%.
Consider `C=CCSc1nnc2c(n1)OC=Nc1ccccc1-2`, for which the “hERG current change (%, negative = inhibition) at 10uM” value was -12.3%.
As for `O=C(CSc1nnc(-c2ccncc2)n1Cc1ccccc1)NC1CCCc2ccccc21` (stereo not shown), the “hERG current change (%, negative = inhibition) at 10uM” value was -37.5%.
Next, `Cl.O=C(NCC(c1cccs1)N1CCOCC1)c1ccccc1NS(=O)(=O)c1cccc([N+](=O)[O-])c1` (stereo not shown): -4.78%; `COc1cc(OC)cc(C(=O)NC(=S)N2CCCCC2c2cccnc2)c1` (stereo not shown): -7.98%; `CCCOc1ccc(C(=O)N2CC3(CC(c4cccc(NC(=O)[C@@H]5CCC(=O)N5)c4)=NO3)C[C@H]2C(=O)NC2(C(N)=O)CC2)cc1` (stereo partly shown): 7.45%.
In the case of `CCOC(=O)CCN(Cc1cccs1)S(=O)(=O)c1ccc(Cl)cc1`, the “hERG current change (%, negative = inhibition) at 10uM” value was -38.2%.
Next, `O=C(CS(=O)(=O)c1ccccc1)Nc1ncc([N+](=O)[O-])s1`: 13.8%.
With `O=C(NCc1ccco1)c1ccc(N2CCCCC2)c([N+](=O)[O-])c1`, the “hERG current change (%, negative = inhibition) at 10uM” value was -24.2%.
For `COc1ccc(C2C=C(Nc3ccccc3)C(=O)N2c2ccccc2)cc1OC` (stereo not shown) the value was 13.6%; for `CCOCCOC(=O)COC(=O)c1ccccc1NC(=O)c1ccccc1`, -12%.
For `Cc1cc(N2CCOCC2)nc(SCc2c(Cl)cccc2Cl)n1` the value was -5.72%; for `COc1ccc(/C=N\n2nnc3ccccc32)cc1`, -0.417%.
For `COc1cccc(OC)c1C(=O)Nc1ccc(NC(=O)c2ccco2)cc1` the value was 10.2%.
In the case of `O=C(Nc1ccccc1Cl)C1C2CCC3C(CCC21)C3(Cl)Cl` (stereo not shown), the “hERG current change (%, negative = inhibition) at 10uM” value is on record as 9.05%.
Next, `C=C(C)CSc1nc2ccccc2c(=O)n1-c1c(C)n(C)n(-c2ccccc2)c1=O`: 18.3%.
For `CC(NC(=O)Cc1ccc(S(=O)(=O)N2CCOCC2)s1)c1ccc(Cl)cc1Cl` (stereo not shown) the value was -6.8%; for `O=C(COc1ccc(Cl)cc1)Nc1c(-c2cccs2)nc2ccccn12`, -14.4%.
Next, `Cc1cc(N/N=C/c2ccccc2Br)nc2ccccc12`: 9.61%; `Cc1ccc(-n2c(C)cc(C3N=C(N)Nc4nc5ccccc5n43)c2C)c(C)c1` (stereo not shown): -13.7%; `CCN(CC)CCn1c(/N=C/c2ccc(OC)c(OC)c2)nc2ccccc21`: -29.1%.
For `COC(=O)CN(c1ccccc1)S(=O)(=O)c1ccc(F)cc1`, the “hERG current change (%, negative = inhibition) at 10uM” value is given as -0.757%.
Next, `CCN(CC)C(=O)CC(c1ccc(OC)cc1)c1c(OC)cc(OC)c2ccc(=O)oc12` (stereo not shown): -5.25%; `Cc1ccc(NC(=O)CSc2ccc(C(N)=O)cc2[N+](=O)[O-])cc1C`: 46.6%; `CCOc1ccc2oc(C(=O)OCC(=O)N3CC(C)OC(C)C3)c(C)c2c1` (stereo not shown): -4.66%.
Next, `COC(=O)c1ccc(-n2nnnc2SCC(=O)NCc2cccc(C(=O)O)c2)cc1`: 15.3%.
Next, `CCN(CC)c1ccc(NC(=O)CSc2n[nH]c(-c3ccco3)n2)cc1`: -1.75%.
For `OCCC1CN(Cc2cccc3nccnc23)CCN1Cc1ccc(F)c(F)c1` (stereo not shown), the “hERG current change (%, negative = inhibition) at 10uM” value is reported as -56.4%.
For `COC(=O)N/N=C/c1cn(CCOc2cccc(OC)c2)c2ccccc12` the value was 3.52%; for `CC(=O)Cc1nsc(NC(=O)c2csc3c2CCCC3)n1`, -8.24%.
For `Cc1ccc(CNC(=O)Cn2ccc3ccccc3c2=O)o1` the value was 7.92%; for `O=C(CN1CCOCC1)N1CCN(c2nnc(-c3ccccc3)c3ccccc23)CC1`, 7.35%.
Next, `Cc1ccc(C(c2c(C)nn(-c3ccccc3)c2N)c2c(C)nn(-c3ccccc3)c2N)cc1`: -20%; `CC(C)Oc1ccc(CN2CCCC(CO)(Cc3ccccc3)C2)cc1CO` (stereo not shown): -43.1%.
As to `CC1=NNC(=O)C1C(c1ccc(F)cc1)C(C#N)C#N` (stereo not shown), the “hERG current change (%, negative = inhibition) at 10uM” value is recorded as -7.89%.
On to `CCOC(=O)N1CCC(N(CCN(C)C)C(=S)Nc2cccc(SC)c2)CC1`, for which the “hERG current change (%, negative = inhibition) at 10uM” value is -11.6%.
With `COc1ccccc1C1CC(=O)Nc2c1c(=O)n(C)c(=O)n2C` (stereo not shown), the “hERG current change (%, negative = inhibition) at 10uM” value was -7.94%.

Values taken from publication PMC4336329 (PLoS ONE, 2015).
